In the supplement of paper PMC4967469:
Lines with a small IC50 respond at low doses; fits outside the tested doses are given as limits. For AUC the same curve is integrated over the 256-fold range of doses and scaled to a fraction; the more sensitive the line, the further below 1.

These cell lines were tested with Cn1c(=O)n(-c2ccc(C(C)(C)C#N)cc2)c2c3cc(-c4cnc5ccccc5c4)ccc3ncc21 [NVP-BEZ235] (assay: Viability of human cancer cell lines after 72 h of drug (GDSC screen)).
Description: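 Human cancer cell lines in 384-well plates, medium with 10% serum, drug for 72 h over a 256-fold dose range (nine 2-fold or five 4-fold steps up to the top dose). Adherent lines were fixed and stained with the nucleic acid dye Syto60, suspension lines read with resazurin; signal relative to control wells, capped at 0 and 100%. One two-parameter sigmoid per drug and line, fitted in a mixed model over all curves with the slope shared within a line.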

Row | Cell Line | AUC | IC50 [nM]
1 | MDA-MB-436 (breast, adherent, top dose 0.25 µM) | 0.734 | 88.1
2 | BL-41 (Burkitt lymphoma, suspension, top dose 0.25 µM) | 0.586 | 25.4
3 | H3255 (lung adenocarcinoma, adherent, top dose 0.25 µM) | 0.709 | 68.7
4 | SISO (cervix, adherent, top dose 0.25 µM) | 0.712 | 60.1
5 | HuP-T3 (pancreas, adherent, top dose 0.25 µM) | 0.83 | 208
6 | KP-1N (pancreas, adherent, top dose 0.25 µM) | 0.768 | 98.1
7 | LB373-MEL-D (melanoma, adherent, top dose 0.25 µM) | 0.978 | > 250
8 | SK-GT-4 (oesophagus, adherent, top dose 0.25 µM) | 0.608 | 33.3
9 | KYSE-520 (oesophagus, adherent, top dose 0.25 µM) | 0.755 | 113
10 | OPM-2 (myeloma, suspension, top dose 0.25 µM) | 0.778 | 82.8
11 | DND-41 (T-cell leukaemia, suspension, top dose 0.25 µM) | 0.822 | 124
12 | SK-GT-2 (stomach, adherent, top dose 0.25 µM) | 0.445 | 10.9
13 | NCI-H1105 (small cell lung carcinoma, suspension, top dose 0.25 µM) | 0.848 | 138
14 | KS-1 (glioma, adherent, top dose 0.25 µM) | 0.639 | 41.6
15 | TE-5 (oesophagus, adherent, top dose 0.25 µM) | 0.663 | 47.8
16 | EFM-192A (breast, adherent, top dose 0.25 µM) | 0.71 | 65.8
17 | ST486 (Burkitt lymphoma, suspension, top dose 0.25 µM) | 0.807 | 111
18 | NCI-H2023 (lung adenocarcinoma, adherent, top dose 2 µM) | 0.267 | 22.7
19 | HO-1-u-1 (head and neck, adherent, top dose 0.25 µM) | 0.802 | 117
20 | KMRC-20 (kidney, adherent, top dose 0.25 µM) | 0.661 | 44
21 | COLO-800 (melanoma, adherent, top dose 0.25 µM) | 0.642 | 38.2
22 | A704 (kidney, adherent, top dose 0.25 µM) | 0.698 | 55.2
23 | Becker (glioma, adherent, top dose 0.25 µM) | 0.629 | 37.2
24 | HeLa (cervix, adherent, top dose 0.25 µM) | 0.874 | 224
25 | EGI-1 (biliary tract, adherent, top dose 0.25 µM) | 0.512 | 17
26 | COLO-684 (endometrium, suspension, top dose 0.25 µM) | 0.625 | 36.1
27 | JHU-022 (head and neck, adherent, top dose 0.25 µM) | 0.606 | 33

Row | Cell Line | AUC | IC50 [nM]
28 | GAK (melanoma, adherent, top dose 0.25 µM) | 0.776 | 94.4
29 | RC-K8 (B-cell lymphoma, suspension, top dose 0.25 µM) | 0.8 | 103
30 | NCI-H146 (small cell lung carcinoma, suspension, top dose 0.25 µM) | 0.843 | 127
31 | FU-OV-1 (ovary, adherent, top dose 0.25 µM) | 0.856 | > 250
32 | JIMT-1 (breast, adherent, top dose 0.25 µM) | 0.516 | 17.4
33 | NUGC-4 (stomach, adherent, top dose 0.25 µM) | 0.975 | > 250
34 | Detroit562 (head and neck, adherent, top dose 0.25 µM) | 0.765 | 88.4
35 | MOLT-4 (lymphoblastic leukaemia, suspension, top dose 0.25 µM) | 0.56 | 22
36 | CHP-212 (neuroblastoma, adherent, top dose 0.25 µM) | 0.658 | 41.4
37 | T98G (glioma, adherent, top dose 0.25 µM) | 0.609 | 30.4
38 | HCC2218 (breast, suspension, top dose 0.25 µM) | 0.882 | > 250
39 | Farage (B-cell lymphoma, suspension, top dose 0.25 µM) | 0.519 | 17.4
40 | FADU (head and neck, adherent, top dose 0.25 µM) | 0.918 | > 250
41 | LOUCY (T-cell lymphoblastic leukaemia, suspension, top dose 0.25 µM) | 0.674 | 43
42 | JHH-7 (liver, adherent, top dose 0.25 µM) | 0.861 | 190
43 | LS-513 (large intestine, adherent, top dose 0.25 µM) | 0.804 | 131
44 | D-263MG (glioma, adherent, top dose 0.25 µM) | 0.58 | 27.1
45 | COR-L23 (large cell lung carcinoma, adherent, top dose 0.25 µM) | 0.685 | 50.6
46 | CAL-12T (non-small cell lung carcinoma, adherent, top dose 0.25 µM) | 0.624 | 35.8
47 | AM-38 (glioma, semi-adherent, top dose 0.25 µM) | 0.703 | 59.2
48 | BPH-1 (prostate, adherent, top dose 2 µM) | 0.221 | 17.3
49 | SCH (stomach, adherent, top dose 0.25 µM) | 0.693 | 57.1
50 | OCI-AML2 (acute myeloid leukaemia, suspension, top dose 0.25 µM) | 0.87 | 139
51 | BV-173 (chronic myeloid leukaemia, suspension, top dose 0.25 µM) | 0.57 | 23.7
52 | NCI-H1436 (small cell lung carcinoma, suspension, top dose 0.25 µM) | 0.838 | 203
53 | OVTOKO (ovary, adherent, top dose 0.25 µM) | 0.561 | 23.9
54 | MKN1 (stomach, adherent, top dose 2 µM) | 0.178 | 12.5

Row | Cell Line | AUC | IC50 [nM]
55 | MSTO-211H (mesothelioma, adherent, top dose 0.25 µM) | 0.7 | 53.5
56 | D-566MG (glioma, adherent, top dose 0.25 µM) | 0.548 | 21
57 | ECC10 (stomach, suspension, top dose 0.25 µM) | 0.679 | 50.8
58 | EFO-21 (ovary, adherent, top dose 0.25 µM) | 0.857 | > 250
59 | SNU-449 (liver, adherent, top dose 0.25 µM) | 0.746 | 85.6
60 | RERF-LC-Sq1 (lung squamous cell carcinoma, adherent, top dose 0.25 µM) | 0.739 | 107
61 | EKVX (lung adenocarcinoma, adherent, top dose 0.25 µM) | 0.695 | 106
62 | NB13 (neuroblastoma, adherent, top dose 0.25 µM) | 0.808 | 112
63 | T84 (large intestine, adherent, top dose 0.25 µM) | 0.968 | > 250
64 | HT-3 (cervix, adherent, top dose 0.25 µM) | 0.894 | > 250
65 | EMC-BAC-2 (lung adenocarcinoma, adherent, top dose 0.25 µM) | 0.392 | 7.45
66 | NCI-H1770 (non-small cell lung carcinoma, suspension, top dose 0.25 µM) | 0.863 | 173
67 | NCI-H1781 (lung adenocarcinoma, adherent, top dose 0.25 µM) | 0.985 | > 250
68 | HSC-39 (stomach, suspension, top dose 0.25 µM) | 0.691 | 49.2
69 | DG-75 (Burkitt lymphoma, suspension, top dose 0.25 µM) | 0.618 | 33.1
70 | BT-483 (breast, adherent, top dose 0.25 µM) | 0.773 | 209
71 | OVK-18 (ovary, adherent, top dose 0.25 µM) | 0.511 | 16.8
72 | LOU-NH91 (lung squamous cell carcinoma, adherent, top dose 0.25 µM) | 0.725 | 72.9
73 | KATOIII (stomach, semi-adherent, top dose 0.25 µM) | 0.788 | 99.5
74 | OVCAR-5 (ovary, adherent, top dose 0.25 µM) | 0.629 | 38.2
75 | RCC-AB (kidney, adherent, top dose 0.25 µM) | 0.481 | 13.7
76 | DIFI (large intestine, adherent, top dose 0.25 µM) | 0.802 | 129
77 | KARPAS-620 (haematopoietic neoplasm, suspension, top dose 0.25 µM) | 0.654 | 38.9
78 | SK-HEP-1 (liver, adherent, top dose 0.25 µM) | 0.694 | 52.4
79 | EFO-27 (ovary, adherent, top dose 0.25 µM) | 0.565 | 24.6
80 | CL-40 (large intestine, adherent, top dose 0.25 µM) | 0.865 | > 250
